The campaign covered roughly 52,000 compounds. About 4,300 (8.3%) were called active. Rule as the data show it: active = survival mostly below about 52% (no sharp cut-off); inactive = mostly above about 56%. The list shows a part of the results.

Among the data in PubChem BioAssay AID463173 (ICCB-Longwood Screening Facility, Harvard Medical School, 2010) are survival values, retold here.

The assay concerns DeltatarO mutant. As to the kind of experiment: S. aureus survival, RN4220 and DeltatarO strains – OD600, teichoic acid synthesis inhibitors, primary screen (AID 463173). To be noted: S. aureus RN4220 wild type/DeltatarO growth, OD600, 18 h, active compounds read low, screened at 18.75 µg/mL (by protocol).
With `COCCn1c(C)cc(O)c(C(c2ccccc2)N2CCN(c3ccccc3F)CC2)c1=O` (configuration not stated), the survival is inactive: 112%.
Under `O=c1[nH]c2cc3c(cc2cc1CNCc1ccc2c(c1)OCO2)OCCO3` stands inactive: 89%; under `CC(C)c1ccc(NC(=O)c2cn(C3CCCC3)c(=O)c3c2c2ccccc2n3C)cc1`, inactive: 70%.
For the molecule `CCCOc1ccc(NC(=O)CC2C(=O)N(c3cccc(OC)c3)C(=O)N2CCc2ccncc2)cc1` (configuration not stated), the survival was inactive: 69%.
Then `CCOc1ccc(-c2csc3ncn(CC(N)=O)c(=O)c23)cc1`, with inactive: 82%; and `COc1ccccc1-c1nc(CNC(=O)NC2CCCCC2)c(C)o1`, with inactive: 94%; and `O=C(Cn1ncc2ccsc2c1=O)N1CCN(c2ccc(Cl)cc2)CC1`, with inactive: 78%.
`Cc1ccc(NC(=O)CCn2nc(C)c3c(C)n(-c4ccccc4)nc3c2=O)cc1Cl`: the survival is inactive: 117%.
Under `CC1CCCCN1Cc1nc2c(c(=O)n(C)c(=O)n2C)n1Cc1ccc(Br)cc1` (configuration not stated) stands inactive: 97%; under `CON(C)c1nc(OCCNC(=O)OCc2ccc(Cl)cc2Cl)nc(N(C)C)n1`, inactive: 76%; under `Cc1ccc2c(Sc3ccc(Cl)cc3)c(C(=O)N3CCCCC3)[nH]c2c1`, inactive: 85%.
Then `COc1ccc(NC(=O)c2c(-c3ccc(C)cc3)nnc3ccccc23)cc1OC`, with inactive: 67%; and `O=C(c1cnccn1)N(Cc1ccc(Cl)cc1)Cc1cc2cc3c(cc2[nH]c1=O)OCCO3`, with inactive: 98%; and `CCN(CC)c1ccc(NC(=O)COCc2cc(-c3ccc4c(c3)OCO4)on2)c(C)c1`, with inactive: 91%.
Under `C/C(=N\N=C1/NC(=O)C(CC(=O)O)S1)c1ccc(C)o1` (configuration not stated) stands inactive: 101%.
Turning to `Cc1ccccc1Cn1c2ccccc2c2cnn(CC(=O)NCc3cccc(Cl)c3)c(=O)c21`, the survival is inactive: 75%.
Take `CCOC(=O)c1ccc(CN(Cc2ccc(F)cc2)S(=O)(=O)c2ccc(F)c(C(=O)Nc3cc(Cl)ccc3OC)c2)cc1`: the survival is inactive: 79%.
Then `Cc1ccc(N2CCN(C(=O)c3c(C)oc4ncn(C)c(=O)c34)CC2)c(C)c1`, with inactive: 83%; and `CCOC(=O)CCc1nn(C)c(=O)c2ccccc12`, with inactive: 109%; and `Cc1ccc(NC(=O)CSc2nc3c(oc4ccccc43)c(=O)n2Cc2ccco2)cc1F`, with inactive: 74%.
Consider `CC(N=Cc1cccc(O)c1O)c1ccccc1` (configuration not stated), for which the survival was inactive: 120%.
With `Cc1nc(-n2nc(C)c(Cc3ccc(Cl)cc3)c2C)sc1C(=O)N1CCC(C)CC1`, the survival was inactive: 67%.
Under `CCCCC(=O)N1c2ccccc2C(C)(c2ccccc2)CC1(C)C` (configuration not stated) stands active: -3%.
Then `Cc1cccc(CNC(=O)c2cnc3c(-c4cccc(C)c4)c(C)nn3c2C)c1`, with active: 17%; and `O=C(OCC(=O)c1cccs1)c1cccc(C(=O)OCC(=O)c2cccs2)n1`, with inactive: 89%; and `COC(=O)c1ccccc1NC(=S)N(Cc1ccco1)Cc1cc2cc(C)ccc2[nH]c1=O`, with inactive: 94%.
For `Cn1c(=O)c2cc(S(=O)(=O)NC(Cc3ccccc3)C(=O)Nc3ccc(F)cc3)ccc2n(C)c1=O` (configuration not stated), the survival was inactive: 69%.
For `CC(=O)N1CCCc2cc(S(=O)(=O)N(C)CC(=O)Nc3cccc(Cl)c3C)ccc21`, the survival was inactive: 89%.
Under `CCc1ccc(S(=O)(=O)NCCc2cn3ccsc3n2)cc1` stands inactive: 72%; under `O=C(c1ccccc1Cl)n1nc(-c2ccco2)nc1NCc1cccs1`, inactive: 54%; under `CC(C)OC(=O)c1c(NC(=O)c2cccc(C(F)(F)F)c2)sc2c1CCCC2`, inactive: 87%.
Under `O=C1CC(c2ccccc2)Sc2ccccc2N1Cc1ccccc1F` (configuration not stated) stands inactive: 96%; under `COc1ccc(NC(=O)Cn2ccn(-c3ccc(F)c(F)c3)c(=O)c2=O)cc1Cl`, inactive: 68%.
Then `COc1cccc(CNC(=O)c2sc3nc[nH]c(=O)c3c2C)c1`, with inactive: 67%.
Regarding `COc1ccc(CNC(=O)CCC2N=C3c4ccccc4N=C(SCC(=O)NCCc4ccc(OC)c(OC)c4)N3C2=O)cc1` (configuration not stated), the survival was inactive: 69%.
Under `O=C1Nc2nc(=O)nc3[nH]c(=O)nc(n23)N1` stands inactive: 97%; under `CC(=O)N1CCCc2cc(S(=O)(=O)N(C)CC(=O)Nc3ccc(C(C)C)cc3)ccc21`, inactive: 94%; under `COc1ccc(CNC(=O)c2cc3c(=O)n(Cc4ccco4)ccc3nc2C)c(OC)c1`, inactive: 67%.
Then `CC(C)c1ccc(OCC(=O)Nc2ccc(S(=O)(=O)Nc3ncccn3)cc2)cc1`, with inactive: 75%.
With `Cn1cc(-c2cc3n(n2)CCC(=O)N3CCCC(=O)Nc2ccc(Cl)cc2)c2ccccc21`, the survival is inactive: 73%.
`CC1=NN(c2ccc(S(N)(=O)=O)cc2)C(=O)C1`: the survival was inactive: 75%.
Under `COC(=O)c1ccccc1NS(=O)(=O)c1cc2c3c(c1)CC(=O)N3CCC2` stands active: 46%; under `O=C(Cn1c(=O)sc2ccccc21)Nc1ccc(O)cc1`, inactive: 70%; under `CCN(CC)S(=O)(=O)c1ccc2c(c1)N(CC(=O)Nc1ccc(Cl)cc1)C(=O)C1CCCN21` (configuration not stated), inactive: 84%.
Under `COc1ccc(C)c2sc(NC(=O)c3ccc(S(=O)(=O)N4CCOCC4)cc3)nc12` stands inactive: 70%.
Under `COc1ccccc1CNC(=O)C(=O)NCC(c1ccco1)S(=O)(=O)c1ccc(F)cc1` (configuration not stated) stands inactive: 94%.
Regarding `Cc1c(C(C)(C)C)sc(=N)n1C`, the survival was inactive: 99%.
Under `COc1cccc(N2CCN(C(=O)c3cnc4c(-c5ccc(F)cc5)c(C)nn4c3C)CC2)c1` stands active: -5%; under `COc1ccc(C(=O)Oc2c(Sc3ccccc3)c(C)nn2-c2ccccc2)c(OC)c1`, inactive: 114%.
Then `Cc1cccc(C)c1OCCn1c(CCNC(=O)C2CCCCC2)nc2ccccc21`, with inactive: 57%.
Under `C=CCn1c(=O)c(C2=NS(=O)(=O)c3ccccc3N2)c(O)c2ccccc21` stands inactive: 77%; under `CCOc1ccc(NC(=O)c2cc(-c3ccc(C)c(F)c3)on2)c([N+](=O)[O-])c1`, inactive: 52%; under `Cc1ccc(-c2noc(C3CCCN(C(=O)c4ccccc4)C3)n2)o1` (configuration not stated), inactive: 85%.
In the case of `O=c1oc2cc(Br)ccc2n1CO`, the survival is inactive: 105%.
Then `CCCCN1C(=O)C(O)(CC(=O)c2ccc(CC)cc2)c2cc(Br)ccc21` (configuration not stated), with active: 32%.
Then `CCCN(C(=O)c1cc2c(=O)oc3ccc(C)cc3c2s1)c1ccc(OCC)cc1`, with inactive: 48%; and `CCSc1nc(-c2cccc(Cl)c2)nc2c1Cc1c(CO)cnc(C)c1O2`, with inactive: 116%.
